Source: publication PMC4336329 (PLoS ONE, 2015)
Among all 310,000 compounds or so, about 2,200 (0.71%) showed an effect of 50% or more. The effect is printed as a negative number. This is one part of the list.

target: human ether-à-go-go-related gene (hERG) potassium channel (human, UniProt Q12809); test: primary screen, population patch clamp on CHO cells stably expressing hERG
Sequence (Q12809 whole entry, looked up): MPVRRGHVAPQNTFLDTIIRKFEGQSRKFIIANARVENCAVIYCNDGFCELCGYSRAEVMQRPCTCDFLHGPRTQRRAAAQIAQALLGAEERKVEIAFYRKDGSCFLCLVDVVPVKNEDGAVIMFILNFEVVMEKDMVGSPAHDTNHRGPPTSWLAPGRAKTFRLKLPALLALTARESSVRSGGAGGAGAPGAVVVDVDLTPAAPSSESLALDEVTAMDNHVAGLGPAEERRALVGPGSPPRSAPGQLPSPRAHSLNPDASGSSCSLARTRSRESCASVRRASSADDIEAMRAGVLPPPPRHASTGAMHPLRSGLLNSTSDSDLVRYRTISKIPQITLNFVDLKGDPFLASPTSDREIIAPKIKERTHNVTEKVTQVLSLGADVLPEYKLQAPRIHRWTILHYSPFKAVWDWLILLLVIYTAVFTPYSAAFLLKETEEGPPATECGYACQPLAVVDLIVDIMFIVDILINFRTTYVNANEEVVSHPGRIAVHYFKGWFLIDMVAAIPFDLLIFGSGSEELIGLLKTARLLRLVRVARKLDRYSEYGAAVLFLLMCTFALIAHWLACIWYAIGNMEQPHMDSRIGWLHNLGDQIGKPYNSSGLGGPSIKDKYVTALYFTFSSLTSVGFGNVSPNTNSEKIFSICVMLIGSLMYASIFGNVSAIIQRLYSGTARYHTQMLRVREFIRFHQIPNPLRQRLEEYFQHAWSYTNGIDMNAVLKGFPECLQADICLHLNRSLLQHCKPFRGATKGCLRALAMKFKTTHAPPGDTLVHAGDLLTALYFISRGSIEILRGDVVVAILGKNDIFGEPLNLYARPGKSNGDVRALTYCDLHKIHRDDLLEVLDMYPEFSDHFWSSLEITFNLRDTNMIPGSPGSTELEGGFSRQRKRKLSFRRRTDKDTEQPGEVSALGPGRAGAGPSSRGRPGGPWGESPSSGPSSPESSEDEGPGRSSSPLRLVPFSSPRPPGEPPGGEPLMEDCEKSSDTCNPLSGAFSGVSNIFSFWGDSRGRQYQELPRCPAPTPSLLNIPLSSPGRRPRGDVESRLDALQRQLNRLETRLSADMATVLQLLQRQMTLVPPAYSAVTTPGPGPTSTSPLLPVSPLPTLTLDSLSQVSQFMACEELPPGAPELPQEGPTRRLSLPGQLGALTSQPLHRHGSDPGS

Row | SMILES | hERG current change (%, negative = inhibition) at 1uM [%]
1 | COc1ccc(C(=O)NCC(=O)OCC(=O)Nc2ncc(Cl)cc2Cl)cc1[N+](=O)[O-] | 10.7
2 | C=CCn1c(=O)n(C(=O)OCC)c2cc(Br)ccc21 | 6.78
3 | COc1ccc(C(=O)Nn2cnc3ccccc3c2=O)c(OC)c1 | 11.7
4 | CC1CCN(CC(=O)Nc2ccc(S(=O)(=O)NC3CC3)cc2)CC1.O=C(O)C(=O)O | -2.82
5 | O=S(=O)(c1ccc(F)c(F)c1)N1CCN(c2ccccn2)CC1 | 18
6 | C/C(=C\c1ccccc1)C(=O)c1c(C)cc(C)[nH]c1=O | 2.1
7 | CCOC(=O)CCCNC(=O)CSc1nc2ccc(OCC)cc2[nH]1 | 9.24
8 | CCOCCCNC(=O)CN(c1cc([N+](=O)[O-])ccc1OC)S(C)(=O)=O | 13.3
9 | CN(Cc1ccccc1)C(=O)c1ccc(NC(=O)c2ccccc2)cc1 | 9.56
10 | Cc1cccc(NC(=O)CN2CCCCCC2)c1 | 10.8
11 | NS(=O)(=O)c1cccc(NC(=O)COC(=O)c2cc(Cl)ccc2[N+](=O)[O-])c1 | 12.7
12 | Cc1ccc(C(=O)C2=C(O)C(=O)N(Cc3ccco3)C2c2cccc(Br)c2)o1 (stereo not shown) | 16
13 | Cc1cccc(Cc2cnc(N3C(=N)SC(c4ccccc4)C3=O)s2)c1 (stereo not shown) | 9.2
14 | CCc1ccccc1N(CC(=O)N/N=C/c1ccc(OC(=O)OC)c(OC)c1)S(C)(=O)=O | 3.95
15 | O=C(Nc1cccc(S(=O)(=O)N2CCOCC2)c1)C1CCCC1 | 1.98
16 | COc1ccc(N(C)C(=O)c2onc3c2CCCC3)cc1 | 22.1
17 | CCN(CC)CC(=O)NC1CCCc2c1cnn2-c1cc(F)cc(F)c1 (stereo not shown) | 7.94
18 | CCCCCC(=O)Nc1ccc(S(=O)(=O)Nc2ccc(Cl)nn2)cc1.Cl | 14.8
19 | O=C(Oc1cccc(NC(=O)c2cccs2)c1)c1cccc(S(=O)(=O)N2CCCC2)c1 | 5.75
20 | CC(=O)N/C(=N/c1nc(C)cc(C)n1)Nc1cccc(C)c1 | -0.725
21 | CCc1nnc(NS(=O)(=O)c2ccc(NC(=O)Nc3ccc(OC)cc3)cc2)s1 | 18.5
22 | COc1cccc(CNc2cc(CSc3ccc(Cl)cc3)nc(C)n2)c1 | 10.7

Row | SMILES | hERG current change (%, negative = inhibition) at 1uM [%]
23 | O=C(CN1CCC(NC(=O)c2ccco2)CC1)Nc1ccccc1C(F)(F)F | 7.54
24 | Cc1ccc(/C=N/N2CCN(Cc3cccc4ccccc34)CC2)s1 | -0.986
25 | CN(C(=O)Cn1nc(Cl)ccc1=O)C1CCCN(Cc2ccccc2F)C1 (stereo not shown) | 17.3
26 | COc1ccccc1C(=O)Nc1nnn(C)n1 | 14
27 | Cl.FC(F)(F)c1ccccc1/C=N/N1CCN(Cc2ccccc2)CC1 | 2.22
28 | CCC(=O)N1CCN=C1SCc1cc(C)ccc1C | 13.7
29 | Cc1[nH]c2ccccc2c1C(=O)COC(=O)Cn1c(C(F)(F)F)nc2ccccc21 | 11.8
30 | C/C(CC(=O)NC1CCCC1)=N\NC(=O)Cc1csc(N)n1 | 13.7
31 | Cc1occc1C(=O)Nc1nnc(-c2cccs2)s1 | 7.33
32 | CCOP(=O)(OCC)C(NC(=O)Nc1ccc(Cl)cc1)C(=O)N(CC)CC (stereo not shown) | 3.23
33 | C=CCN1N=C(/C=C/c2ccc(OC)cc2)CCC1=O | 11.7
34 | O=C(O)c1cc(C(F)(F)F)nc2c(C(F)(F)F)cccc12 | 14.4
35 | CCC(=O)c1ccc(OCC(=O)OCC(=O)Nc2ccc(C)c(S(=O)(=O)N3CCCCC3)c2)cc1 | 14.1
36 | Cc1ccc(C)c(N2CCN(C(=O)CCCOc3cc(=O)n(C)c4ccccc34)CC2)c1 | 1.82
37 | Cn1c(Cc2ccccc2)nnc1SCC(=O)Nc1ccc2c(c1)OCO2 | 11.8
38 | COc1ccc(C(=O)Nc2nc(N)n(-c3ccccc3)n2)cc1 | 2.54
39 | COc1cc(OC)cc(C(=O)N[C@H](C(=O)Nc2ccc(F)cc2F)C(C)C)c1 | 14.1
40 | O=C(CSCc1ccccc1Cl)Nc1ccc2c(c1)OCCO2 | 9.4
41 | O=C(O)CCCc1ccc(N(CCCl)CCCl)cc1 | 17.3
42 | COC(=O)C1=C(C)N(CCc2cc(OC)c(OC)c(OC)c2)C(=O)N[C@H]1c1ccccc1 | 12.2
43 | CC(=O)NCCn1c(SCC#N)nc2ccccc2c1=O | 3.61
44 | CCCSCCCNC(=O)c1ccc(C)c(NC(=O)C2=C(C)OCCS2)c1 | 15.5

Row | SMILES | hERG current change (%, negative = inhibition) at 1uM [%]
45 | CC(C)(C)c1ccc(S(=O)(=O)N2CCSC2)cc1 | 12.9
46 | O=C(c1ccc([N+](=O)[O-])cc1)n1nc(-c2ccccc2)nc1NCc1ccc(F)cc1 | 10.2
47 | COCCNC(=O)c1ccc(CN2CCC(Cc3ccccc3)CC2)cc1 | 2.58
48 | CCOc1ccc(C(O)Cn2c(=N)n(CCN3CCCCC3)c3ccccc32)cc1.Cl (stereo not shown) | -56
49 | C=C1CC(C)OC(c2ccccc2OCC(O)CN2CCCCC2)C1 (stereo not shown) | -63.3
50 | Cc1ccc(C(=O)OC(C(=O)O)C(OC(=O)c2ccc(C)cc2)C(=O)O)cc1 (stereo not shown) | 2.59
51 | O=C(NNc1cc(N2CCOCC2)nc(N2CCOCC2)n1)c1ccc(Cl)cc1Cl | 12.7
52 | CCOCCCNC(=O)N[C@H](C(=O)OC)C(C)CC (stereo partly shown) | -3.15
53 | Cc1ccc(-c2csc(N3CCC(NS(=O)(=O)c4ccc5c(c4)OCCO5)CC3)n2)cc1 | 9.83
54 | CCN(C(=O)c1c(C)cc(=O)oc1C)c1ccc2c(c1)OCO2 | 13.1
55 | O=C(CCc1ccc(S(=O)(=O)NCc2ccccc2)cc1)NCc1ccco1 | -6.49
56 | Nc1cc(N)nc(SCc2nnnn2-c2ccc(Cl)cc2)n1 | 9.6
57 | O=[N+]([O-])c1c(C(Cl)Cl)nn(-c2ccc(Cl)cc2)c1N1CCCCC1 | 10.9
58 | C=CCn1c(SCc2ccc3nonc3c2)nnc1-c1cccs1 | -3.49
59 | CC(=O)c1cccc(OC(=O)c2cc(S(=O)(=O)N3CCOCC3)ccc2N2CCCC2)c1 | 0.974
60 | CCN(c1ccccc1)S(=O)(=O)c1ccc(C(=O)Nc2nnc(C3CC3)o2)cc1 | 1.19
61 | CC(=O)c1c(C)nc(Nc2nc(C)c3cc(C)ccc3n2)nc1C | 12.7
62 | CCOC(=O)N1CCN(CC(=O)N2c3ccccc3Sc3ccccc32)CC1.O=C(O)C(=O)O | 12.1
63 | CCOCCCN1C(=O)CN(C2CCCCC2)C(=O)C1c1ccc(OCC)c(OC)c1 (stereo not shown) | 12.1
64 | COc1ccc(C(=O)Nc2c(N)nc(SCC(=O)NCC3CCCO3)[nH]c2=O)cc1OC (stereo not shown) | 2.17
65 | O=C(Nc1nc(-c2cccs2)cs1)c1ccco1 | -4.42
66 | COCCCNC(=S)NNC(=S)Nc1ccccc1 | 19.8

Row | SMILES | hERG current change (%, negative = inhibition) at 1uM [%]
67 | O=[N+]([O-])c1ccccc1/C=N/n1c(-c2cccnc2)n[nH]c1=S | 16.9
68 | CNC(=O)NC(=O)CSc1ccc(S(=O)(=O)N2CCOCC2)cn1 | 5.62
69 | Cc1cc(Nc2ccccc2F)n2ncnc2n1 | 2.23
70 | Cc1ccc(CNS(=O)(=O)/C=C/c2ccc3c(c2)OCO3)cc1 | -0.964
71 | Cc1ccc(O)c(/C=N/NC(=O)COc2ccc3c(C)cc(=O)oc3c2)c1 | 13.9
72 | COC(=O)CN1C(CN2CCOCC2)=Nc2ccc(Br)cc2C1c1ccccc1 (stereo not shown) | -43.8
73 | O=C(COc1ccc(/C=N/NS(=O)(=O)c2ccccc2)cc1)Nc1cccc(Cl)c1 | 9.31
74 | COc1ccccc1-n1c(O)c(C=NCc2ccc3c(c2)OCO3)c(=O)[nH]c1=O | 13.5
75 | O=C(NCCS(=O)(=O)N1CCC2(CC1)OCCO2)c1ccc(F)cc1 | 13.2
76 | Cc1ccc(C)c(SCC(=O)Nc2oc(C)c3c(C)n[nH]c(=O)c23)c1 | -18.9
77 | Cc1nn(-c2ccccc2)c(Cl)c1/C=N/NC(=O)c1ccc(CNc2ccccc2)o1 | 1.39
78 | CCOc1ccccc1Nc1nc(-c2cccnc2)cs1 | 12.4
79 | COc1ccc(N2CCN(C(=O)CSc3nc4[nH]ncc4c(=O)n3-c3ccc(Br)cc3)CC2)cc1 | 16.9
80 | CCn1nnc(NC(=O)c2sc3ccccc3c2Cl)n1 | -0.0481
81 | Cc1cc(C)c(S(=O)(=O)c2cccc(C)c2C)c(=O)[nH]1 | 15.7
82 | Cc1cc2ccccn2c1C(=O)c1nc(NCc2ccccc2)ncc1Cl | 9.8
83 | CC(=O)Cc1nsc(Nc2ccc(C)cc2)n1 | 19.1
84 | CC/C(=N/Nc1ccc(Cl)cc1)c1cnnc(SC)n1 | 10.5
85 | O=C(NCc1ccc(F)cc1)C1CCCN1C(=O)Nc1ccccc1 (stereo not shown) | 7.13
86 | Cc1nc2nc(NCc3cccs3)nn2c(C)c1Cl | -0.695
87 | CN1CCN(S(=O)(=O)c2ccc3c(c2)oc(=O)n3C)CC1 | 12.8
88 | COc1ccc(CCNC(=O)C2CCC(CNS(=O)(=O)c3ccc(F)cc3)CC2)cc1OC (stereo not shown) | 18.2
